Test results reported in PubChem BioAssay AID1963576 (National Center for Advancing Translational Sciences (NCATS), 2024).
Hit rate of the full screen: of about 46,000 compounds, about 60 (0.1%) were called active. Another 3% or so got no clear call; they are omitted. Calls come from the whole dose curve; as a rule, active = well fitted inhibition curve with a large enough effect; inconclusive = small, poorly fitted or top-dose-only effect; inactive = no such curve, though single readings can be large or run the other way. The list shows a part of the results.

Experiment: Primary qHTS assay for Inhibitors of ovarian cancer metastasis using an organotypic tumor microenvironment (TME) model.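 For activity change, negative = inhibition: plate controls were DMSO wells for no effect and tomatine positive control wells for full effect.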 Note: nearly all actives have a fitted effect of over 65% in size.
Settings: SKOV3ip1-GFP adhesion/invasion on 3D omental model, fluorescence; series mostly up to 45.8 µM; activity change, negative = inhibition: at the top concentration
Procedure, shortened: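 Primary human omental fibroblast/mesothelial 3D culture pre-formed 48 h. SKOV3ip1-GFP cells added with compounds (0.36-46 umol/L), incubated 2 h RT/16 h 37 C, fixed; GFP cells quantified at 488/509 nm.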

Row | Compound | activity change, negative = inhibition | outcome
1 | COc1ccc(NC(=O)c2c(NCc3cccs3)sc3c2CCCC3)c(OC)c1 | inactive: 2.2% | 
2 | COC(=O)C(CCSC)NC(=O)Cn1ncc2c([nH]c3ccccc32)c1=O (stereo not drawn) |  | inactive
3 | CC(=O)n1nc(-c2cccnc2)nc1NCc1ccc(F)cc1 | inactive: -1.39% | 
4 | O=C(OCc1cc(=O)n2nc(-c3cccs3)sc2n1)c1ccccc1 | inactive: 3.5% | 
5 | Cc1ccc(CNC(=O)CN2C(=O)CSc3ccc(S(=O)(=O)N(C)C)cc32)cc1 |  | inactive
6 | CCn1cc(C(=O)OCC(=O)Nc2cc(OC)cc(OC)c2)c(=O)c2ccc(C)nc21 |  | inactive
7 | O=C(c1ccc(Cl)cc1)N1CCC(c2nc3ccccc3o2)CC1 |  | inactive
8 | O=C1c2oc3ccccc3c(=O)c2C(c2ccc(O)cc2)N1Cc1ccc2c(c1)OCO2 (stereo not drawn) | inactive: 9.18% | 
9 | CCOC(=O)C1CCCN(c2c(C(=O)c3ccc(OCC)cc3)cnc3ccccc23)C1 (stereo not drawn) | inactive: -1.23% | 
10 | CCN1CCN(CCCNC(=O)c2cnn(-c3ccccc3Cl)c2C2CCN(C(=O)OC(C)(C)C)CC2)CC1 |  | inactive
11 | Cc1nn(C)c2c1c(-c1ccccc1)cc(=O)n2Cc1ccccc1C#N |  | inactive
12 | CC(C)CN(CCCNC(=O)c1cc(-c2cccs2)nc2ccccc12)CC(C)C |  | inactive
13 | Cc1cc(OCC(=O)Nc2c(C(=O)c3ccccc3)oc3ccccc23)cc(C)c1Cl | inactive: 6.46% | 
14 | O=C(CCC1N=C2c3ccccc3N=C(SCc3cccc(F)c3)N2C1=O)NCCc1ccccc1 (stereo not drawn) | inactive: 0.58% | 
15 | CCCCCCCCCCCCCC(=O)N[C@H](CO)[C@H](O)c1ccc([N+](=O)[O-])cc1 | inactive: -1.95% | 
16 | Cc1cccc(C)c1NC(=O)Cn1nnc(C(=O)Nc2c(C)cccc2C)c1N | inactive: 1.19% | 
17 | CCCCc1nn2c(=O)cc(COC(=O)c3cccc(Cl)c3)nc2s1 |  | inactive
18 | COC(=O)c1ccccc1NC(=O)c1ccc(-c2nc(COc3ccccc3)c(C)o2)cc1 | inactive: 6.1% | 
19 | Cc1cc(F)ccc1NC(=O)C1CCN(C(=O)c2cnn(-c3ccccc3)c2-n2cccc2)CC1 |  | inactive
20 | COc1ccc(Nc2cc(-c3cnc(N)nc3)nc(N3CCOCC3)n2)cn1 | inactive: -15.1% | 
21 | COCCCn1c(=N)c(C(=O)NCc2cccnc2)cc2c(=O)n3cccc(C)c3nc21 |  | inactive
22 | CN1C(=O)Cc2cc(S(=O)(=O)CCC(=O)Nc3ccc(Cl)c(C(F)(F)F)c3)ccc21 | inactive: 9.21% | 
23 | CCOC(=O)c1c(C)[nH]c(CCC(=O)NCc2cccc(C)c2)c1C | inactive: -4.11% | 
24 | COc1ccc(NC(=O)c2oc3ccccc3c2NC(=O)Cc2coc3cc(C)ccc23)cc1 | inactive: -1.04% | 

Row | Compound | activity change, negative = inhibition | outcome
25 | COc1ccc(C)cc1NC(=O)CCNC(=O)Cn1ccc2ccccc2c1=O | inactive: 4.79% | 
26 | Cc1ccc(CNC(=O)CN2C(=O)CSc3c2c(C)nn3-c2ccccc2)cc1 |  | inactive
27 | O=C(CCC1N=C2c3ccccc3N=C(SCc3ccccc3F)N2C1=O)NCc1ccccc1 (stereo not drawn) | inactive: 3.79% | 
28 | CCCNC(=O)COCc1cc(-c2ccc(F)cc2)on1 | inactive: -6.3% | 
29 | Cn1c(-c2ccccc2)cnc1NCc1ccccc1O | inactive: -4.24% | 
30 | O=C(NCc1ccccc1Br)c1ccc2c(c1)nc1n2CCOC1 | inactive: 6.08% | 
31 | COc1ccc2oc(-c3ccc(C)c(NC(=O)c4ccc5c(c4)OCCO5)c3)nc2c1 | inactive: -17.3% | 
32 | COc1ccc(C2=C(C)C(=NCCCN3CCN(c4cc(Cl)ccc4C)CC3)NS2(=O)=O)cc1 |  | inactive
33 | Cc1ccc(NC(=O)Cn2cc(S(=O)(=O)Cc3cccc(Cl)c3)c3ccccc32)cc1C | inactive: -3.56% | 
34 | COc1ccc(-n2ncc(C(=O)Nc3ccc4c(c3)OCO4)c2C2CCN(C(=O)OC(C)(C)C)CC2)cc1 | inactive: 38.7% | 
35 | Cc1ccc(-n2ncc(C(=O)NCc3ccccn3)c2C2CCN(C(=O)OC(C)(C)C)CC2)c(C)c1 | inactive: -4.69% | 
36 | COc1ccc(CNC(=O)CCCn2c(=O)c3cccn3c3ccc(F)cc32)cc1OC | inactive: -17.7% | 
37 | Cc1ccccc1Cn1nnc2c(=O)[nH]c(C3CCN(C(=O)c4ccccc4Cl)CC3)nc21 | inactive: 3.4% | 
38 | COc1ccc(NC(=O)C2CCN(C(=O)N3CCOc4ccccc43)CC2)cc1 | inactive: 0.561% | 
39 | Cc1ccc2occ(CC(=O)Nc3ccc(S(=O)(=O)N4CCCC(C)C4)cc3)c2c1 (stereo not drawn) | inactive: -23.6% | 
40 | O=C(Nc1ccc(Cl)c(C(F)(F)F)c1)c1ccc2c(c1)CCN2S(=O)(=O)c1ccccc1 |  | inactive
41 | COc1ccc(NC(=O)CN2C(=O)CSc3ccc(S(=O)(=O)N(C)C)cc32)cc1Cl | inactive: 26.2% | 
42 | COCCCNC(=O)C(C)n1c2ccccc2c2cnn(C)c(=O)c21 (stereo not drawn) | inactive: 34.4% | 
43 | COc1ccc(NC(=O)N2CCN(S(=O)(=O)c3ccc4c(ccn4C)c3)CC2)cc1OC | inactive: -2.14% | 
44 | CCC1CN(C(=O)NCc2ccccc2)c2cc(C)ccc2O1 (stereo not drawn) | inactive: 1.14% | 
45 | O=c1c2cc3c(cc2n(Cc2ccccc2)c(=O)n1Cc1nc(-c2ccccc2)no1)OCO3 |  | inactive
46 | COc1ccc(-c2noc(N3CCC(C(=O)Nc4ccc(OC)c(OC)c4)CC3)n2)cc1 | inactive: -2.32% | 
47 | CN(C)c1ccc(C(CNC(=O)c2cccc(C(F)(F)F)c2)N2CCCC2)cc1 (stereo not drawn) |  | inactive
48 | COc1ccc(Cl)cc1Nc1cc(C)nc2nc(-c3ccccc3C)nn12 |  | inactive
